Consider 61 compounds from PubChem BioAssay AID1508623 (National Center for Advancing Translational Sciences (NCATS), 2021).

The whole screen tested about 48,000 compounds, of which about 450 (0.94%) were called active. Inconclusive results (about 19%) are left out. The call rests on the fitted dose curve; in most records, active means well fitted inhibition curve with a large enough effect; inconclusive means small, poorly fitted or top-dose-only effect; inactive means no such curve, though single readings can be large or run the other way. This is one part of the list.
Potency means the concentration at half of the fitted maximal effect.

A short description of the assay: Primary qHTS for Identification of Small Molecule Inhibitors of Huntingtin Promoter Activity. Further: nearly all actives have a fitted effect of over 50% in size. As to conditions: HEK293 HTT promoter firefly luciferase reporter (activity 0% = vehicle and -100% = no light), 24 h; series mostly up to 57.5 µM; activity change, negative = inhibition: at the top concentration. In a few lines: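 Firefly luciferase signal from promoter-reporter HEK293 cells was scaled between vehicle (0%) and zero RLU (-100%). Compounds were tested at final concentrations of up to 57.5 uM over 24 h at 37 degrees C. PTC124 at 50 uM final served as control inhibitor.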
(In general: Quantitative high-throughput screening tests each substance at several concentrations.)
In the case of `CCN1CCN(Cc2c(O)ccc3c(=O)c(Oc4ccccc4C(C)C)c(C(F)(F)F)oc23)CC1`, the “activity change, negative = inhibition” value was inactive: -18.6%.

Consider `CCCN1CCN(CCCNC(=O)Cn2nc(C)n3c(cc4c(OC)cccc43)c2=O)CC1`, for which the “activity change, negative = inhibition” value is inactive: 1.77%.

For the compound `Cc1ccc(CNC(=O)c2cc3ccc4cccnc4c3[nH]2)cc1`, the “activity change, negative = inhibition” value was inactive: 24.9%.

Turning to `CCN(C(=O)Cn1c(=O)n(Cc2ccccc2)c(=O)c2c1c1cc(OC)ccc1n2C)c1ccccc1`, the “activity change, negative = inhibition” value was inactive: -12.8%.

Turning to `Cc1ccc(NC(=O)Cn2cnc3c2c(=O)n(C)c(=O)n3C)cc1C`, the “activity change, negative = inhibition” value is inactive: -5.97%.

For `COc1cc(Cl)c(C)cc1NC(c1ccccc1)c1nnc(-c2ccccc2Cl)o1` (stereo unspecified), the “activity change, negative = inhibition” value is inactive: -6.22%.

Consider `Cc1ccccc1CNC(=O)c1ccc2nc(C(C)C)oc2c1`, for which the “activity change, negative = inhibition” value was inactive: -5.1%.

On to `CC(=O)Nc1ccc2nc(NC(=O)CS(=O)(=O)c3ccc(C)cc3)sc2c1`, for which the “activity change, negative = inhibition” value was inactive: -13.6%.

Take `CCC(C)n1c(=N)c(C(=O)NC2CCCCC2)cc2c(=O)n3ccccc3nc21` (stereo unspecified): the “activity change, negative = inhibition” value is inactive: 0.917%.

Turning to `Cc1ccc(C)c(N2CCN(S(=O)(=O)c3cn(C)c(C)n3)CC2)c1`, the “activity change, negative = inhibition” value was inactive: -7.62%.

For the compound `Cc1ccc2c(=O)cc(C(=O)Nc3sc4c(c3C(=O)NCC3CCCO3)CCCC4)oc2c1C` (stereo unspecified), the “activity change, negative = inhibition” value was inactive: -3.4%.

Regarding `Cc1ccc(Cl)cc1NC(=O)CCc1c(C)nc2c3cccnc3nn2c1C`, the “activity change, negative = inhibition” value is inactive: -12.3%.

Take `COc1ccc(-c2ccc3c(N)c(C(=O)NCc4ccc(C)cc4)sc3n2)cc1`: the “activity change, negative = inhibition” value is inactive: -5.08%.

As for `CC(C)(C)OC(=O)N1CCC(c2c(C(=O)NCCN3CCOCC3)cnn2-c2ccc(F)cc2)CC1`, the “activity change, negative = inhibition” value was inactive: -5.13%.

For `O=C(COc1ccc(F)cc1)Nc1nnc(SCc2cc(=O)n3ccccc3n2)s1`, the “activity change, negative = inhibition” value is inactive: 11.4%.

As to `COc1ccc(C)cc1NC(=O)C(Cc1ccccc1)NS(=O)(=O)c1ccc(Br)s1` (stereo unspecified), the “activity change, negative = inhibition” value was inactive: -8.66%.

For `COc1ccc(N2Cc3cccc(C(=O)Nc4ccc(Cl)cc4)c3C2=O)cc1`, the “activity change, negative = inhibition” value was inactive: -1.62%.

Consider `COc1cccc(Cn2c(SCc3ccc(C(=O)N4CCCCC4)cc3)nc3ccncc32)c1`, for which the Potency was active: 12.6 µM.

For `Cc1cc(Cl)ccc1NC(=O)CN1C(=O)COc2ccc(S(=O)(=O)Nc3ccccc3)cc21`, the “activity change, negative = inhibition” value is inactive: -7.73%.

For `CCOC(=O)C1CCCN(C(=O)c2ccc3c(c2)sc2nc(-c4ccc(C)cc4C)cn23)C1` (stereo unspecified), the “activity change, negative = inhibition” value was inactive: -4.87%.

Regarding `COc1cc(NC(=O)c2ccc3c(Cl)c4c(nc3c2)CCC4)cc(OC)c1OC`, the “activity change, negative = inhibition” value was inactive: -14%.

Regarding `CC(=O)c1cccc(-n2c(=O)c3c4c(sc3n(CC(=O)Nc3ccccc3F)c2=O)CN(C(C)=O)CC4)c1`, the “activity change, negative = inhibition” value is inactive: 2.37%.

For the compound `CCOC(=O)Cn1c(=O)c2c(nc(N3CCOCC3)n2Cc2ccccc2)n(C)c1=O`, the “activity change, negative = inhibition” value was inactive: 2.57%.

Consider `CCc1ccc(CNC(=O)C2CCN(c3nnc(C)c4c(C)n(-c5ccc(C)cc5)nc34)CC2)cc1`, for which the “activity change, negative = inhibition” value is inactive: -13.2%.

Consider `COc1cc([C@H]2Oc3cc([C@H]4Oc5cc(O)cc(O)c5C(=O)[C@H]4O)ccc3O[C@H]2CO)ccc1O`, for which the “activity change, negative = inhibition” value is inactive: -15.1%.

Consider `COc1cc(-c2ccc(=O)[nH]n2)ccc1OC(F)F`, for which the “activity change, negative = inhibition” value was inactive: 7.17%.

On to `O=C(Cn1nc(-c2ccccc2)c2cnc3ccc(F)cc3c21)NC1CCCC1`, for which the “activity change, negative = inhibition” value was inactive: -0.287%.

On to `O=C(Nc1nnc(S(=O)(=O)N2CCCCCC2)s1)c1ccccc1F`, for which the “activity change, negative = inhibition” value was inactive: 39.7%.

Take `Cc1nc(N2CCOCC2)c2c(C(=O)N(C)Cc3ccccc3)c(C)oc2n1`: the “activity change, negative = inhibition” value was inactive: 2.16%.

Consider `CCOc1cccc2sc(N3CCN(C(=O)C(C)(C)C)CC3)nc12`, for which the “activity change, negative = inhibition” value is inactive: 20.9%.

Regarding `Cc1ccc(-c2nnc(SCC(=O)N3CCCc4ccccc43)o2)cc1`, the “activity change, negative = inhibition” value is inactive: -8.28%.

In the case of `Cc1cc(NC(=O)CSc2nc3c([nH]c4ccccc43)c(=O)n2-c2ccccc2F)no1`, the “activity change, negative = inhibition” value was inactive: -9.53%.

As to `Cc1ccc(C(=O)c2oc3ccccc3c2NC(=O)c2cc(=O)c3cc(C)ccc3o2)cc1`, the “activity change, negative = inhibition” value was inactive: -9.67%.

Consider `COc1cccc(Cn2ccn(-c3ccc(F)cc3)c(=O)c2=O)c1`, for which the “activity change, negative = inhibition” value is inactive: -8.05%.

Turning to `Cc1ccc(NC(=O)c2nnn(Cc3cccc(C(F)(F)F)c3)c2N)c(C)c1`, the “activity change, negative = inhibition” value was inactive: -26.9%.

In the case of `O=C(Nc1ccc(Cl)cc1)N1CCC(CN2CCCCCC2)CC1`, the “activity change, negative = inhibition” value is inactive: 3.27%.

For the compound `COc1ccc(NC(=O)Cn2cc(C(=O)c3ccncc3)c(=O)c3cc(C)ccc32)cc1Cl`, the “activity change, negative = inhibition” value was inactive: -6.36%.

Turning to `COC(=O)c1ccc(-n2nnc(-c3nc(-c4ccccc4Cl)no3)c2C)cc1`, the “activity change, negative = inhibition” value is inactive: 4.81%.

`CCNC(=O)C1CCCN(c2ncnc3onc(C)c23)C1` (stereo unspecified): the “activity change, negative = inhibition” value is inactive: -8.33%.

For the compound `CN1CCN(C(=O)Cn2c(-c3cccs3)cc3ccccc32)CC1`, the “activity change, negative = inhibition” value was inactive: -13%.

For the compound `COc1cc(OC)cc(C(=O)Nc2ccc(-c3nc4ccccc4s3)c(C)c2)c1`, the “activity change, negative = inhibition” value is inactive: 35.8%.

Regarding `COc1ccc(NC(=O)Cn2nc(-c3ccccc3)c3cnc4ccc(C)cc4c32)cc1`, the “activity change, negative = inhibition” value is inactive: -7.01%.

For `Cc1ccc(OCC(=O)Nc2ccc3c(c2)sc(=O)n3C)cc1`, the “activity change, negative = inhibition” value was inactive: -5.59%.

As for `CCOC(=O)c1c(NC(=O)COc2ccc(CC)cc2)sc2c1CCCC2`, the “activity change, negative = inhibition” value was inactive: -8.5%.

Take `Cc1ccc(-c2nc(C(=O)N3CCN(c4ccccc4)CC3)c3n2CCCCC3)cc1`: the “activity change, negative = inhibition” value is inactive: -17.9%.

Regarding `COc1ccc(NC(=O)C(NC(=O)C2CCC(C)CC2)C(C)C)cc1` (stereo unspecified), the “activity change, negative = inhibition” value is inactive: 1.51%.

Turning to `CCC(Sc1ncccc1C(=O)Oc1ccccc1Cl)C(=O)Nc1ccccc1OC` (stereo unspecified), the “activity change, negative = inhibition” value is inactive: -26.6%.

For the compound `Cc1ccc2c(=O)c(C(=O)c3ccccc3)cn(CC(=O)Nc3ccc(C)c(Cl)c3)c2n1`, the “activity change, negative = inhibition” value was inactive: -1.9%.

On to `CCCNC(=O)c1ccc2c(c1)nc(C)n2-c1cccc(C)c1`, for which the “activity change, negative = inhibition” value is inactive: -4.18%.

In the case of `Cc1nn(C)c2c1c(C(F)(F)F)cc(=O)n2C(C)C(=O)NCCC(C)C` (stereo unspecified), the “activity change, negative = inhibition” value was inactive: -6.31%.

Regarding `CCOc1ccccc1NC(=O)c1ccc2c(c1)CCN2S(C)(=O)=O`, the “activity change, negative = inhibition” value is inactive: -5.16%.

Turning to `COc1cc(C2c3c(-c4cc(C)ccc4O)n[nH]c3C(=O)N2Cc2cccnc2)cc(OC)c1OC` (stereo unspecified), the “activity change, negative = inhibition” value is inactive: 16.7%.

As to `CCn1cc2nc(SCC(=O)Nc3cc(OC)ccc3OC)n(Cc3ccc(Cl)cc3)c(=O)c2n1`, the “activity change, negative = inhibition” value is inactive: -23.3%.

In the case of `Cc1ccc(-n2c(SCC(=O)N3CCc4ccccc43)nc3c([nH]c4ccccc43)c2=O)cc1`, the “activity change, negative = inhibition” value is inactive: 9.45%.

Take `O=C(Nc1ccc(OC(F)(F)F)cc1)c1cc2c(=O)n3ccccc3nc2s1`: the “activity change, negative = inhibition” value was inactive: -12.2%.

With `CCS(=O)(=O)N1CCc2cc(C(=O)Nc3cc([N+](=O)[O-])ccc3C)ccc21`, the “activity change, negative = inhibition” value was inactive: -15.5%.

As to `O=C(CCn1c(=O)c2cccn2c2cccnc21)N1CCN(c2ccc(F)cc2)CC1`, the “activity change, negative = inhibition” value was inactive: -9.59%.

`COc1ccc(C(=O)Nc2ccc3nc(SCC(=O)N4CCCC4)sc3c2)cc1`: the “activity change, negative = inhibition” value was inactive: -9.47%.

With `CC(C)(C)CC(C)(C)c1ccc(O)c(Cc2ccc(Cl)cc2Cl)c1`, the “activity change, negative = inhibition” value is inactive: 0.0198%.

For `CCCC(=O)Nc1nnc(SCc2cc(=O)n3ccccc3n2)s1`, the “activity change, negative = inhibition” value is inactive: -1.09%.

Consider `O=C(NC1CCCCC1)c1ccc2c(c1)N(Cc1ccccc1F)C(=O)c1ccccc1S2`, for which the “activity change, negative = inhibition” value was inactive: 6.25%.
